# Source: the supplement of paper PMC8728848
# This is one part of the list.
# B1: rAAL-I144G (Agrocybe aegerita), Q6WY08 (protein)
# chain: MQGVNIYNISAGTSVDLAAPVTTGDIVTFFSSALNLNAGAGNPNNTTLNLFAENGAYLLHIAFRLQENVIIFNSRQPDGPWLVEQRVSDVANQFAGIDGKAMVTVFDHGDKYQVVINEKTVIQYTKQISGLTLSLSYNATEETSGFSTVVEAVTYTGLALEHHHHHH
# Legend:
# Assay in all cases: glycan array binding signal (z-score within array); higher = stronger binding
# Settings in all cases: glycan notation: IUPAC condensed, linker removed; mutation: I144G
# [1] = biological target: Fuc(a1-2)Gal
# How it was run: (§1)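 From the Consortium for Functional Glycomics database, 3228 arrays were curated, keeping only those whose protein sequence was available. Binding is given as a within-array Z-score averaged across arrays sharing a protein sequence and across linkers. Negative Z-scores can be read as non-binding.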
# [2] = biological target: Fuc(a1-2)Gal(b1-3)GalNAc
# How it was run: as §1
# [3] = biological target: Fuc(a1-2)Gal(b1-3)GalNAc(a1-3)[Fuc(a1-2)]Gal(b1-4)Glc
# How it was run: as §1
# [4] = biological target: Fuc(a1-2)Gal(b1-3)GalNAc(a1-3)[Fuc(a1-2)]Gal(b1-4)GlcNAc
# How it was run: as §1
# [5] = biological target: Fuc(a1-2)Gal(b1-3)GalNAc(b1-3)Gal
# How it was run: as §1
# [6] = biological target: Fuc(a1-2)Gal(b1-3)GalNAc(b1-3)Gal(a1-4)Gal(b1-4)Glc
# How it was run: as §1
# [7] = biological target: Fuc(a1-2)Gal(b1-3)GalNAc(b1-4)[Neu5Ac(a2-3)]Gal(b1-4)Glc
# How it was run: as §1
# [8] = biological target: Fuc(a1-2)Gal(b1-3)GlcNAc
# How it was run: as §1
# [9] = biological target: Fuc(a1-2)Gal(b1-3)GlcNAc(b1-2)Man(a1-3)[Fuc(a1-2)Gal(b1-3)GlcNAc(b1-2)Man(a1-6)]Man(b1-4)GlcNAc(b1-4)GlcNAc
# How it was run: as §1
# [10] = biological target: Fuc(a1-2)Gal(b1-3)GlcNAc(b1-2)Man(a1-3)[Fuc(a1-2)Gal(b1-3)GlcNAc(b1-2)Man(a1-6)]Man(b1-4)GlcNAc(b1-4)[Fuc(a1-6)]GlcNAc
# How it was run: as §1
# [11] = biological target: Fuc(a1-2)Gal(b1-3)GlcNAc(b1-3)Gal(b1-4)Glc
# How it was run: as §1
# [12] = biological target: Fuc(a1-2)Gal(b1-3)GlcNAc(b1-3)GalNAc
# How it was run: as §1
# [13] = biological target: Fuc(a1-2)Gal(b1-3)GlcNAc(b1-3)[Fuc(a1-2)Gal(b1-3)GlcNAc(b1-6)]GalNAc
# How it was run: as §1
# [14] = biological target: Fuc(a1-2)Gal(b1-3)GlcNAc(b1-3)[Gal(b1-4)GlcNAc(b1-6)]Gal(b1-4)Glc
# How it was run: as §1
# [15] = biological target: Fuc(a1-2)Gal(b1-3)GlcNAc(b1-3)[Neu5Ac(a2-6)Gal(b1-4)GlcNAc(b1-6)]Gal(b1-4)Glc
# How it was run: as §1
# [16] = biological target: Fuc(a1-2)Gal(b1-3)GlcNAc6S
# How it was run: as §1
# [17] = biological target: Fuc(a1-2)Gal(b1-3)[Fuc(a1-4)]GlcNAc
# How it was run: as §1
# [18] = biological target: Fuc(a1-2)Gal(b1-3)[Fuc(a1-4)]GlcNAc(b1-2)Man(a1-3)[Fuc(a1-2)Gal(b1-3)[Fuc(a1-4)]GlcNAc(b1-2)Man(a1-3)]Man(b1-4)GlcNAc(b1-4)GlcNAc
# How it was run: as §1
# [19] = biological target: Fuc(a1-2)Gal(b1-3)[Fuc(a1-4)]GlcNAc(b1-2)Man(a1-3)[Fuc(a1-2)Gal(b1-3)[Fuc(a1-4)]GlcNAc(b1-2)Man(a1-6)]Man(b1-4)GlcNAc(b1-4)[Fuc(a1-6)]GlcNAc(b1-4)[Fuc(a1-6)]GlcNAc
# How it was run: as §1
# [20] = biological target: Fuc(a1-2)Gal(b1-3)[Fuc(a1-4)]GlcNAc(b1-3)[Fuc(a1-3)[Gal(b1-4)]GlcNAc(b1-6)]Gal(b1-4)Glc
# How it was run: as §1
# [21] = biological target: Fuc(a1-2)Gal(b1-3)[Fuc(a1-4)]GlcNAc(b1-3)[Gal(b1-4)GlcNAc(b1-6)]Gal(b1-4)Glc
# How it was run: as §1
# [22] = biological target: Fuc(a1-2)Gal(b1-4)Fuc(a1-3)]GlcNAc(b1-2)Man(a1-3)[Fuc(a1-2)Gal(b1-4)[Fuc(a1-3)]GlcNAc(b1-2)Man(a1-6)]Man(b1-4)GlcNAc(b1-4)GlcNAc
# How it was run: as §1
# [23] = biological target: Fuc(a1-2)Gal(b1-4)Glc
# How it was run: as §1
# [24] = biological target: Fuc(a1-2)Gal(b1-4)Glc6S
# How it was run: as §1
# [25] = biological target: Fuc(a1-2)Gal(b1-4)GlcNAc
# How it was run: as §1
# [26] = biological target: Fuc(a1-2)Gal(b1-4)GlcNAc(b1-2)Man
# How it was run: as §1
# [27] = biological target: Fuc(a1-2)Gal(b1-4)GlcNAc(b1-2)Man(a1-3)[Fuc(a1-2)Gal(b1-4)GlcNAc(b1-2)Man(a1-6)]Man(b1-4)GlcNAc(b1-4)GlcNAc
# How it was run: as §1
# [28] = biological target: Fuc(a1-2)Gal(b1-4)GlcNAc(b1-2)Man(a1-3)[Fuc(a1-2)Gal(b1-4)GlcNAc(b1-2)Man(a1-6)]Man(b1-4)GlcNAc(b1-4)[Fuc(a1-6)]GlcNAc
# How it was run: as §1
# [29] = biological target: Fuc(a1-2)Gal(b1-4)GlcNAc(b1-2)[Fuc(a1-2)Gal(b1-4)GlcNAc(b1-4)]Man(a1-3)[Fuc(a1-2)Gal(b1-4)GlcNAc(b1-2)Man(a1-6)]Man(b1-4)GlcNAc(b1-4)GlcNAc
# How it was run: as §1
# [30] = biological target: Fuc(a1-2)Gal(b1-4)GlcNAc(b1-3)Gal(b1-4)GlcNAc
# How it was run: as §1
# [31] = biological target: Fuc(a1-2)Gal(b1-4)GlcNAc(b1-3)Gal(b1-4)GlcNAc(b1-2)Man(a1-3)[Fuc(a1-2)Gal(b1-4)GlcNAc(b1-3)Gal(b1-4)GlcNAc(b1-2)Man(a1-6)]Man(b1-4)GlcNAc(b1-4)GlcNAc
# How it was run: as §1
# [32] = biological target: Fuc(a1-2)Gal(b1-4)GlcNAc(b1-3)Gal(b1-4)GlcNAc(b1-3)Gal(b1-4)GlcNAc
# How it was run: as §1
# [33] = biological target: Fuc(a1-2)Gal(b1-4)GlcNAc(b1-3)GalNAc
# How it was run: as §1
# [34] = biological target: Fuc(a1-2)Gal(b1-4)GlcNAc(b1-3)[Fuc(a1-2)Gal(b1-4)GlcNAc(b1-6)]GalNAc
# How it was run: as §1
# [35] = biological target: Fuc(a1-2)Gal(b1-4)GlcNAc(b1-3)[Fuc(a1-3)[Gal(b1-4)]GlcNAc(b1-6)]Gal(b1-4)Glc
# How it was run: as §1
# [36] = biological target: Fuc(a1-2)Gal(b1-4)GlcNAc(b1-6)GalNAc
# How it was run: as §1
# [37] = biological target: Fuc(a1-2)Gal(b1-4)GlcNAc6S
# How it was run: as §1
binder,measurement,setting,value
B1,glycan array binding signal (z-score),[1],-0.104
same,glycan array binding signal (z-score),[2],-0.116
same,glycan array binding signal (z-score),[3],-0.171
same,glycan array binding signal (z-score),[4],-0.189
same,glycan array binding signal (z-score),[5],-0.131
same,glycan array binding signal (z-score),[6],-0.112
same,glycan array binding signal (z-score),[7],-0.095
same,glycan array binding signal (z-score),[8],-0.126
same,glycan array binding signal (z-score),[9],-0.006
same,glycan array binding signal (z-score),[10],-0.129
same,glycan array binding signal (z-score),[11],-0.144
same,glycan array binding signal (z-score),[12],-0.196
same,glycan array binding signal (z-score),[13],-0.208
same,glycan array binding signal (z-score),[14],-0.161
same,glycan array binding signal (z-score),[15],-0.125
same,glycan array binding signal (z-score),[16],-0.115
same,glycan array binding signal (z-score),[17],-0.109
same,glycan array binding signal (z-score),[18],-0.138
same,glycan array binding signal (z-score),[19],-0.086
same,glycan array binding signal (z-score),[20],-0.125
same,glycan array binding signal (z-score),[21],-0.151
same,glycan array binding signal (z-score),[22],0.088
same,glycan array binding signal (z-score),[23],-0.192
same,glycan array binding signal (z-score),[24],-0.183
same,glycan array binding signal (z-score),[25],-0.107
same,glycan array binding signal (z-score),[26],-0.189
same,glycan array binding signal (z-score),[27],-0.063
same,glycan array binding signal (z-score),[28],-0.097
same,glycan array binding signal (z-score),[29],-0.131
same,glycan array binding signal (z-score),[30],-0.067
same,glycan array binding signal (z-score),[31],-0.187
same,glycan array binding signal (z-score),[32],-0.145
same,glycan array binding signal (z-score),[33],-0.078
same,glycan array binding signal (z-score),[34],-0.077
same,glycan array binding signal (z-score),[35],-0.047
same,glycan array binding signal (z-score),[36],-0.061
same,glycan array binding signal (z-score),[37],-0.109
